In all, about 200,000 compounds went through this assay and about 10 (0.005%) were called active. Inconclusive means that the source gave no clear call. Such entries were picked first, then a sample of the others. The call rests on the fitted dose curve; in most records, active means well fitted inhibition curve with a large enough effect; inconclusive means small, poorly fitted or top-dose-only effect, or effect the other way, or another doubt; inactive means no such curve, though single readings can be large or run the other way. Potencies of inconclusive entries are left out as doubtful fits.
Target: Lysosomal alpha-glucosidase (Homo sapiens) (UniProt P10253)
Assay: qHTS Assay for Inhibitors of Human alpha-Glucosidase as a Potential Chaperone Treatment of Pompe Disease;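 on activity change, negative = inhibition: plate controls were uninhibited enzyme wells for no effect and no-enzyme background for full effect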
Conditions: purified human GAA, 4-MU-alpha-glucoside fluorescence; activity change, negative = inhibition: at 76.9 µM (top of the series) unless noted
Summary of the method: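 Compounds are titrated up to 77 uM against 4 nM human enzyme. Substrate 4-methylumbelliferyl-alpha-D-pyranoside (400 uM) reacts 20 min at room temperature in pH 5.0 buffer; liberated 4-methylumbelliferone is read at 440 nm.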
Potency means the concentration at half of the fitted maximal effect; tags describe the fitted curve by direction and shape.

| SMILES | Potency | activity change, negative = inhibition |
| --- | --- | --- |
| CCCn1c(=O)n(C)c(=O)c2c(SCC(=O)NC34CC5CC(CC(C5)C3)C4)nc(CC(C)C)nc21 | inconclusive [inhibitor, full curve] |  |
| COCCCn1c(N)c(C(=O)OCCOC)c2nc3ccccc3nc21 | inconclusive [activator, partial curve] |  |
| COCCNC(=O)c1c(NC(=O)c2ccc(Br)o2)n(Cc2ccccc2)c2nc3ccccc3nc12 | inactive |  |
| CCC(C)OC(=O)c1c(N)n(Cc2cccs2)c2nc3ccccc3nc12 (configuration not stated) | inconclusive [activator, partial curve] |  |
| COc1ccc(C(=O)C2(C)N(O)C(C)C(c3cccs3)=[N+]2[O-])cc1 (configuration not stated) | inconclusive [inhibitor, partial curve, poor fit] |  |
| CC(=Nc1ccc2c(c1)CCC2)c1c(O)n(C)c(=O)n(C)c1=O | inconclusive [inhibitor, full curve, poor fit] |  |
| C=Cn1ccnc1P(=S)(c1ccccc1)c1nccn1C=C | inconclusive [inhibitor, single point] |  |
| O=c1[nH]c(=O)n(-c2cccc(Cl)c2)c(O)c1C=NCCN1CCCCC1 | inconclusive [inhibitor, single point] |  |
| COc1ccc(N/N=C/c2c(O)n(-c3ccc(C)c(C)c3)c(=O)[nH]c2=O)cc1 | inconclusive [inhibitor, single point] |  |
| O=C1NC(=O)N(c2ccc3c(c2)OCO3)C(=O)/C1=C/c1ccc(N2CCCCC2)o1 | inactive |  |
| CCOC(=O)c1c(N)n(CCN2CCCCC2)c2nc3ccccc3nc12 | inconclusive [activator, single point] |  |
| Cc1cc(/C=C2\C(=O)NC(=O)N(c3cccc(F)c3)C2=O)c(C)n1-c1cc(C(=O)O)cc(C(=O)O)c1 | inactive |  |
| CCOc1ccc(N2C(=O)NC(=O)/C(=C\c3cc(OC)c(OC)cc3[N+](=O)[O-])C2=O)cc1 | inconclusive [inhibitor, single point] |  |
| CCC(=O)c1cc(F)c(N2CCN(CC)CC2)cc1C |  | inconclusive: 1.84% [activator] |
| CN(Cc1ccccc1)C(=C(Cl)Cl)/C(=C1/NCCN1Cc1ccc(Cl)nc1)[N+](=O)[O-] |  | inconclusive: -16.9% [inhibitor] |
| O=c1[nH]c(=O)n(-c2cccc3ccccc23)c(O)c1C=NCc1ccc2c(c1)OCO2 | inconclusive [inhibitor, single point] |  |
| CC(C)CCn1c(N)c(C(=O)OCC2CCCO2)c2nc3ccccc3nc21 (configuration not stated) | inconclusive [activator, partial curve] |  |
| O=C(COc1ccc(Br)cc1)N1CCN(Cc2c[nH]c3ccccc23)CC1 | inconclusive [inhibitor, full curve, poor fit] |  |
| Cn1c(O)c(/C=N/N2CCCCC2)c(=O)[nH]c1=O | inconclusive [inhibitor, single point] |  |
| CNS(=O)(=O)c1ccc(N=Cc2c(O)n(-c3cccc(C)c3)c(=O)[nH]c2=O)cc1 | inconclusive [inhibitor, single point] |  |
| CNCC[C@H](Oc1cccc2ccccc12)c1cccs1 | inconclusive [inhibitor, single point] |  |

| SMILES | Potency | activity change, negative = inhibition |
| --- | --- | --- |
| CCC(C)NC(=O)c1c(N)n(CC2CCCO2)c2nc3ccccc3nc12 (configuration not stated) | inconclusive [activator, partial curve] |  |
| O=C(c1ccccc1)c1ccc(N=Nc2c(O)[nH]c(=O)[nH]c2=O)cc1 | inconclusive [inhibitor, single point] |  |
| C=CCNC(=O)c1c(N)n(CCN2CCOCC2)c2nc3ccccc3nc12 |  | inconclusive: 25.9% [activator] |
| O=C(c1c[nH]c2ccc(S(=O)(=O)N3CCC4(CC3)OCCO4)cc2c1=O)N1CCC2(CC1)OCCO2 | inconclusive [activator, partial curve] |  |
| COc1ccc(/C=N/NC(=O)c2cccc([N+](=O)[O-])c2)cc1OC | inconclusive [inhibitor, single point] |  |
| CC(C)OCCCNC(=O)c1c(N)n(Cc2cccs2)c2nc3ccccc3nc12 | inconclusive [activator, partial curve] |  |
| CN(C)C(=O)Oc1c(Cl)cc(Cl)c2ccccc12 | inactive |  |
| COc1cccc(NP(=O)(Oc2ccccc2Cl)Oc2ccccc2Cl)c1 | inconclusive [inhibitor, single point] |  |
| O=C(N=Nc1c(O)[nH]c(=O)[nH]c1=O)C1COc2ccccc2O1 (configuration not stated) |  | inconclusive: 17% [activator] |
| CC(C)Cn1cc(C(=O)N2CCC3(CC2)OCCO3)c2c3ccccc3n(C)c2c1=O | inconclusive [activator, partial curve] |  |
| O=C(Cn1c(=O)n(CC2CS2)c2ccccc21)N1CCCCC1 (configuration not stated) | inconclusive [inhibitor, full curve, poor fit] |  |
| CC(C)(C)C(=O)c1cn(CC(=O)NCc2ccco2)c2ccccc12 | inconclusive [inhibitor, full curve, poor fit] |  |
| O=C(CCC1CCCN(Cc2cccc3c2OCO3)C1)NCc1ccc(F)c(F)c1 (configuration not stated) | inconclusive [inhibitor, partial curve, poor fit] |  |
| Clc1ccc2c(c1)C(c1ccccc1Cl)=NCc1nnc(N3CCN(CCOc4ccccc4)CC3)n1-2 | inconclusive [inhibitor, partial curve] |  |
| CCOC(=O)c1c(N)n(Cc2ccc(OC)cc2)c2nc3ccccc3nc12 | inconclusive [activator, partial curve] |  |
| CCN(CC)CCCOC(=O)C(OC(C)C)(c1ccccc1)c1ccccc1 | inconclusive [inhibitor, single point] |  |
| COc1ccc(C(C)=O)cc1COC(=O)c1ccc2ccccc2n1 | inconclusive [inhibitor, partial curve, poor fit] |  |
| Clc1ccc(COC(Cn2ccnc2)c2ccc(Cl)cc2Cl)c(Cl)c1 (configuration not stated) | inconclusive [inhibitor, single point] |  |
| CCCCn1c(O)c(C(C)=NC(Cc2c[nH]c3ccccc23)C(=O)OC)c(=O)[nH]c1=O (configuration not stated) | inconclusive [inhibitor, single point] |  |
| CCOc1cc(-c2nc3c(C)cccn3c2NCC2CCCO2)ccc1O (configuration not stated) | inactive |  |
| COCCOC(=O)c1c(N)n(Cc2ccco2)c2nc3ccccc3nc12 | inconclusive [activator, partial curve] |  |

| SMILES | Potency | activity change, negative = inhibition |
| --- | --- | --- |
| CCCCn1c(O)c(C(C)=Nc2ccc(OCC)cc2)c(=O)[nH]c1=O | inconclusive [inhibitor, single point] |  |
| COc1cc(C(c2c(C)[nH]n(-c3ccccc3)c2=O)c2c(C)[nH]n(-c3ccccc3)c2=O)cc(OC)c1OC | inconclusive [inhibitor, single point] |  |
| COc1ccc(C2CC(c3cccs3)=NN2c2nc(C)c(C(C)=O)s2)cc1OC (configuration not stated) | inconclusive [activator, partial curve] |  |
| O=C(NC1(C(F)(F)F)Oc2ccccc2O1)N1CCC2(CC1)OCCO2 | inactive |  |
| CC(C)CN1CCN(Cc2c(F)cccc2Cl)CC1CCO (configuration not stated) | inconclusive [inhibitor, full curve, poor fit] |  |
| Cc1ccccc1C1=NCC(=O)N(CC(=O)N2CCCCC2)c2sc(C)c(C)c21 | inconclusive [inhibitor, single point] |  |
| CCOP(=O)(OCC)c1nc(-c2cccc3ccccc23)oc1N1CCOCC1 | inconclusive [activator, partial curve] |  |
| Cc1ccc(C2NC(=S)NC(c3ccc(C)cc3)C23C(=O)NC(=O)NC3=O)cc1 (configuration not stated) |  | inconclusive: -16.5% [inhibitor] |
| CCOP(=O)(OCC)C(NS(=O)(=O)c1ccccc1)C(Cl)(Cl)Cl (configuration not stated) |  | inconclusive: 14.1% [activator] |
| CC(=O)Nc1ccccc1C(=O)OCc1cccc(F)c1 | inconclusive [activator, partial curve] |  |
| COc1ccc(/C=C2/C(=O)NC(=O)N(C3CCCCC3)C2=O)cc1CSc1ccccn1 | inactive |  |
| COc1cccc(CN2CCN(C(=O)COc3ccc4ccccc4c3)CC2)c1 | inconclusive [inhibitor, single point] |  |
| N#Cc1cc2c(nc1SCC(=O)Nc1ccc(Cl)cc1)C1CCN2CC1 | inconclusive [inhibitor, single point] |  |
| COc1cc(N2CCOCC2)ccc1/C=C1\C(=O)NC(=O)N(C2CCCCC2)C1=O | inconclusive [inhibitor, full curve, poor fit] |  |
| Cc1cc(NC(=O)c2noc3c2CCCCC3)no1 | inconclusive [inhibitor, full curve, poor fit] |  |
| Cc1onc(-c2ccccc2)c1C(=O)N1CCC2(CC1)OCCO2 | inactive |  |
| CC1(C)N(O)C2CCCCC2N1O (configuration not stated) | inactive |  |
| CCCCn1c(=O)c(C=Nc2cccnc2Cl)c(O)n(CCCCl)c1=O | inconclusive [inhibitor, partial curve, poor fit] |  |
| COc1ccccc1OCCCn1cc(C(C)=O)c2ccccc21 |  | inconclusive: 19.3% [activator] |
| CCCCOP(=O)(c1ccc(N(C)C)cc1)C(Nc1ccccc1)c1ccccc1 (configuration not stated) | inconclusive [inhibitor, full curve, poor fit] |  |
